Results are given in words; binding and its absence hold for the method and conditions named. Binding seen in cells or lysates may run through a third protein. Some results given as binding are weak or reduced against the parent protein; the word gives no strength.

Protein sequences, listed by entry. Tags and fused reporters are not part of them. Lines headed by an entry give the natural chain unless they say otherwise; changes in a name come on top. Chains listed by the source or under a name are the forms on record and can include a tag or linker. Residues count along the entry.
UniProt P09211: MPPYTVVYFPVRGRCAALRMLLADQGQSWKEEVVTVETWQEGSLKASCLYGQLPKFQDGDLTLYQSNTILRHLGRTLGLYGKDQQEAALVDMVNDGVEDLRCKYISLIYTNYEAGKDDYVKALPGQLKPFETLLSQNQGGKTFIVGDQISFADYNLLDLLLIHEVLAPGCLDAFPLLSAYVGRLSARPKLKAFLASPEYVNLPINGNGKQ
GFP-fused GSTP1 D1 region (1-70): residues 1-70 of P09211
GFP-fused GSTP1 D2 region: residues 71-140 of P09211
GFP-fused GSTP1 D3 region (141-210): residues 141-210 of P09211

For three substances, binding results are on record in publication PMC10368634.

Experiment [1] deals with G6PD (glucose-6-phosphate dehydrogenase), endogenous (human (endogenous in MCF-7, Bcap37, 293T, HeLa, HepG2 and human breast tissue)) (UniProt P11413). As to the kind of experiment: co-IP; endogenous G6PD immuno-enriched from lysates of 13 human breast cancer samples and adjacent normal tissues; SRC and GSTP1 detected by Western blot.
Experiment [2] has the same target. The experiment can be described thus: co-IP; endogenous proteins; MCF-7, HeLa, HepG2 lysates, 0.5 mM glucose without or with 20 mM lactic acid for 12 h; anti-G6PD antibody overnight at 4 °C, protein A/G agarose, Western blot. Background: A western blot detects proteins with antibodies after separation by electrophoresis.
For experiment [3], the target named is GFP-fused GSTP1 D3 region (141-210) (human) (UniProt P09211). As to the kind of experiment: co-IP; GFP or GFP fusions of GSTP1 (full length, D1, D2, D3) overexpressed in MCF-7 cells, anti-GFP beads, Western blots; also in glucose-deprived (0.5 mM) media without or with 20 mM lactic acid.
Experiment [4] addresses GFP-fused GSTP1 D1 region (1-70) (human) (UniProt P09211). The description is as above.
The target in experiment [5] is GFP-fused GSTP1 D2 region (human) (UniProt P09211). Described as above.
Experiment [6] concerns the target GFP-fused full length GSTP1 (glutathione S-transferase pi) (human) (UniProt P09211). Described as above.
Experiment [7] addresses Flag-tagged GSTP1 (human) (UniProt P09211). As to the kind of experiment: co-IP; Flag-tagged GSTP1 overexpressed in MCF-7, Bcap37 and 293T for 24 h; glc medium (0.5 mM glucose), lac medium (plus 20 mM lactic acid) or NBDHEX medium (plus 10 uM NBDHEX) for 12 h; Flag (M2) beads, HEPES-lysis buffer, Western blot.
Experiment [8] concerns the target Flag-tagged G6PD 2YA mutant (Y249A/Y322A) (human) (UniProt P11413). The experiment can be described thus: co-IP; HA-SRC or HA-GSTP1 co-transfected with Flag-G6PD WT or mutants (2YF/2YA) for 24 h; Flag-tagged G6PD immunopurified and immunoblotted.
In experiment [9] the target is Flag-tagged G6PD, wild type (human) (UniProt P11413). The description is as above.
Experiment [10] has as its target Flag-tagged G6PD 2YF mutant (Y249F/Y322F) (human) (UniProt P11413). Described as above.

As to “GSTP1 (glutathione S-transferase pi), endogenous (from UniProt P09211 1-210) (enzyme)”, the binding entry in [1] and in [2] was “binds” in each case.
As to “G6PD (glucose-6-phosphate dehydrogenase), endogenous (from UniProt P11413 1-515) (enzyme)”, the binding result in [3] is on record as “binds”; in experiment [4], “binds”; in experiment [5], “no binding”; in experiment [6], “binds”; in experiment [7], “binds”.
With HA-GSTP1 (from UniProt P09211 1-210), the binding result is “binds weakly” in experiment [8], “binds” in experiment [9] and “binds weakly” in [10].
